# Measured values from the antibiotic and cytotoxicity screens of Wong et al. (2023).
# This is one part of the list.
# System: HSkMC (human skeletal muscle cells)
# Assay: cytotoxicity call (relative viability < 0.9)
# Details: 10 µM
row,SMILES,cytotoxicity call
1,Cc1cccc(S(=O)(=O)N2C[C@H](O)COC[C@@H]3O[C@@H](CC(=O)NCc4ccncn4)CC[C@H]32)c1,inactive
2,Nc1nnnn1/N=C\c1ccc(O)cc1,inactive
3,C[C@@H]1CN([C@H](C)CO)C(=O)Cc2cc(NC(=O)C3CCCCC3)ccc2O[C@H]1CN(C)C(=O)Nc1cccc2ccccc12,inactive
4,NCC[C@H]1CC[C@H](NC(=O)C2CC2)[C@H](CO)O1,inactive
5,C[C@H]1CCCCO[C@H](CN(C)S(=O)(=O)c2ccc(F)cc2)[C@@H](C)CN([C@@H](C)CO)C(=O)c2cc(NC(=O)Nc3ccc(C(F)(F)F)cc3)ccc2O1,inactive
6,C[C@H]1CCCCO[C@@H](CN(C)C(=O)Nc2ccccc2)[C@@H](C)CN([C@@H](C)CO)C(=O)c2cc(NC(=O)C3CCCCC3)ccc2O1,inactive
7,C[C@@H]1CCCCO[C@H](CN(C)C(=O)Nc2ccc(F)cc2)[C@@H](C)CN([C@H](C)CO)C(=O)c2cc(NC(=O)NC3CCCCC3)ccc2O1,inactive
8,COCC(=O)N1C[C@H](C)[C@H](OC)CN(C)C(=O)c2cc(NC(=O)Nc3ccccc3)ccc2OC[C@H]1C,inactive
9,CN1C(=O)c2cc(NC(=O)C3CCOCC3)ccc2OC[C@@H]2O[C@H](CC(=O)NCc3ccc4c(c3)OCO4)CC[C@@H]21,inactive
10,COc1ccccc1S(=O)(=O)N(C)C[C@H]1Oc2cc(C#CCC(C)C)ccc2S(=O)(=O)N([C@@H](C)CO)C[C@H]1C,inactive
11,C[C@@H]1CN([C@@H](C)CO)C(=O)c2ccccc2-c2ccccc2CO[C@H]1CN(C)C(=O)Nc1cccc(C(F)(F)F)c1,inactive
